The supplement of paper PMC8728848
The list shows a part of the results.

Experiments:
Test in all cases: glycan array binding signal (z-score within array); higher = stronger binding
Conditions in all cases: glycan notation: IUPAC condensed, linker removed
Neu5Ac(a2-8)Neu5Ac = molecular target: Neu5Ac(a2-8)Neu5Ac
In short: (§1)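 Negative Z-scores can be read as non-binding. The Z-score is calculated within each array and then averaged across arrays of one protein sequence at different concentrations or buffers and across linkers. Arrays, 3228 in all, were curated from the Consortium for Functional Glycomics database and kept only where the protein sequence was available.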

[1] = molecular target: Neu5Ac(a2-8)Neu5Ac(a2-3)Gal(b1-3)GalNAc(b1-4)[Neu5Ac(a2-3)]Gal(b1-4)Glc
In short: as §1

[2] = molecular target: Neu5Ac(a2-8)Neu5Ac(a2-3)Gal(b1-3)GalNAc(b1-4)[Neu5Ac(a2-8)Neu5Ac(a2-3)]Gal(b1-4)Glc
In short: as §1

[3] = molecular target: Neu5Ac(a2-8)Neu5Ac(a2-3)Gal(b1-4)Glc
In short: as §1

[4] = molecular target: Neu5Ac(a2-8)Neu5Ac(a2-3)Gal(b1-4)GlcNAc
In short: as §1

[5] = molecular target: Neu5Ac(a2-8)Neu5Ac(a2-3)[Gal(b1-3)GalNAc(b1-4)]Gal(b1-4)Glc
In short: as §1

[6] = molecular target: Neu5Ac(a2-8)Neu5Ac(a2-3)[GalNAc(b1-4)]Gal(b1-4)Glc
In short: as §1

[7] = molecular target: Neu5Ac(a2-8)Neu5Ac(a2-8)Neu5Ac
In short: as §1

[8] = molecular target: Neu5Ac(a2-8)Neu5Ac(a2-8)Neu5Ac(a2-3)Gal(b1-4)Glc
In short: as §1

[9] = molecular target: Neu5Ac(a2-8)Neu5Ac(a2-8)Neu5Ac(a2-3)[Gal(b1-3)GalNAc(b1-4)]Gal(b1-4)Glc
In short: as §1

[10] = molecular target: Neu5Ac(a2-8)Neu5Ac(a2-8)Neu5Ac(a2-3)[GalNAc(b1-4)]Gal(b1-4)Glc
In short: as §1

[11] = molecular target: Neu5Ac(a2-8)Neu5Ac(a2-8)Neu5Ac(a2-8)Neu5Ac(a2-3)[GalNAc(b1-4)]Gal(b1-4)Glc
In short: as §1

[12] = molecular target: Neu5Ac(a2-8)Neu5Gc(a2-3)Gal(b1-4)GlcNAc
In short: as §1

[13] = molecular target: Neu5Ac(b2-6)Gal(b1-4)GlcNAc
In short: as §1

Neu5Ac(b2-6)GalNAc = molecular target: Neu5Ac(b2-6)GalNAc
In short: as §1

[14] = molecular target: Neu5Ac9Ac(a2-3)Gal(b1-3)GlcNAc
In short: as §1

[15] = molecular target: Neu5Ac9Ac(a2-3)Gal(b1-4)GlcNAc
In short: as §1

[16] = molecular target: Neu5Ac9Ac(a2-6)Gal(b1-4)GlcNAc
In short: as §1

[17] = molecular target: Neu5Gc(a2-3)Gal(b1-3)GlcNAc
In short: as §1

[18] = molecular target: Neu5Gc(a2-3)Gal(b1-3)[Fuc(a1-4)]GlcNAc
In short: as §1

Neu5Gc(a2-3)Gal(b1-4)Glc = molecular target: Neu5Gc(a2-3)Gal(b1-4)Glc
In short: as §1

[19] = molecular target: Neu5Gc(a2-3)Gal(b1-4)GlcNAc
In short: as §1

[20] = molecular target: Neu5Gc(a2-3)Gal(b1-4)GlcNAc(b1-3)Gal(b1-4)GlcNAc(b1-2)Man(a1-3)[Neu5Gc(a2-3)Gal(b1-4)GlcNAc(b1-3)Gal(b1-4)GlcNAc(b1-2)Man(a1-6)]Man(b1-4)GlcNAc(b1-4)GlcNAc
In short: as §1

[21] = molecular target: Neu5Gc(a2-3)Gal(b1-4)[Fuc(a1-3)]GlcNAc
In short: as §1

[22] = molecular target: Neu5Gc(a2-6)Gal(b1-4)GlcNAc
In short: as §1

Neu5Gc(a2-6)GalNAc = molecular target: Neu5Gc(a2-6)GalNAc
In short: as §1

[23] = molecular target: Neu5Gc(a2-8)Neu5Ac(a2-3)Gal(b1-4)GlcNAc
In short: as §1

[24] = molecular target: Neu5Gc(a2-8)Neu5Gc(a2-3)Gal(b1-4)GlcNAc
In short: as §1

[25] = molecular target: Neu5Gc(a2-8)Neu5Gc(a2-3)Gal(b1-4)GlcNAc(b1-3)Gal(b1-4)GlcNAc
In short: as §1

[26] = molecular target: Neu5Gc(a2-8)Neu5Gc(a2-6)Gal(b1-4)GlcNAc
In short: as §1

[27] = molecular target: Neu5Gc(b2-6)Gal(b1-4)GlcNAc
In short: as §1

B1: PX15618B-bfa-464-25-464 (Bacteroides fragilis) (protein)
chain: DQEPPLYVNENDIFTSPTRIEATLNGLYAAIKNTGTKSLMGGKSYLVFDNRGDDVINISNNLVTLFNTYNMNVGITDAENADTWTYAYLAINKVNTFLQSLEGAREVAGENYDRYVQEAKFVRALAYYYLNNLYPTPYSVNPDAKSVPLRLTAEAGTENNNMPRSTVKQIYEHILSDLENISALDTEVNTYTGVTHATQAAANMLKMRVYMAMNEWDKAITAGELVTGYSLPEDVTLIYKAPYFSQESIFSLPMADTNIPNTQQSLAEYYYDGKIMLIDTKSGIMSKPDYSLATDKRIIAFKGEKDLLMKFTDAKTKLQWVPIFRYAETLLDLAECYANKAGGEATAKSLLKQVRGRSVDAATDPLNIDNLSGDALKEAIYNEKRLEFIGEGIRGIDIMRRGEHFIKVGENETINVGPSDEKYTWPIPQVELLLNKDINK
With B1 the “glycan array binding signal (z-score)” value (Neu5Ac(a2-8)Neu5Ac) was -0.092, the “glycan array binding signal (z-score)” value [1] was -0.098 and the “glycan array binding signal (z-score)” value [2] was 0.635. The “glycan array binding signal (z-score)” value [3] was -0.012, the “glycan array binding signal (z-score)” value [4] was -0.48 and the “glycan array binding signal (z-score)” value [5] was 0.103. For the same binder, the “glycan array binding signal (z-score)” value [6] was 0.284, the “glycan array binding signal (z-score)” value [7] was 0.369 and the “glycan array binding signal (z-score)” value [8] was 0.177. The “glycan array binding signal (z-score)” value [9] was -0.03, the “glycan array binding signal (z-score)” value [10] was -0.744 and the “glycan array binding signal (z-score)” value [11] was 0.163. For the same binder, the “glycan array binding signal (z-score)” value [12] was -0.104, the “glycan array binding signal (z-score)” value [13] was -0.656 and the “glycan array binding signal (z-score)” value (Neu5Ac(b2-6)GalNAc) was -0.7. For the same binder, the “glycan array binding signal (z-score)” value [14] was -0.817, the “glycan array binding signal (z-score)” value [15] was 0.409 and the “glycan array binding signal (z-score)” value [16] was -0.361. The “glycan array binding signal (z-score)” value [17] was -0.454, the “glycan array binding signal (z-score)” value [18] was -0.415 and the “glycan array binding signal (z-score)” value (Neu5Gc(a2-3)Gal(b1-4)Glc) was -0.315. The “glycan array binding signal (z-score)” value [19] was 0.039, the “glycan array binding signal (z-score)” value [20] was 0.195 and the “glycan array binding signal (z-score)” value [21] was 0.009. For the same binder, the “glycan array binding signal (z-score)” value [22] was 0.351, the “glycan array binding signal (z-score)” value (Neu5Gc(a2-6)GalNAc) was 0.373 and the “glycan array binding signal (z-score)” value [23] was -0.194. For the same binder, the “glycan array binding signal (z-score)” value [24] was -0.429, the “glycan array binding signal (z-score)” value [25] was -0.074 and the “glycan array binding signal (z-score)” value [26] was -0.309. The “glycan array binding signal (z-score)” value [27] was -0.048.
